Data reported in article PMC7819943, “Rice protein-binding microarrays: a tool to detect cis-acting elements near promoter regions in rice”.
The list shows a part of the results.

Target: T1, OsWOX13 (Oryza sativa, UniProt Q5QMM3 1-267)
T1 sequence: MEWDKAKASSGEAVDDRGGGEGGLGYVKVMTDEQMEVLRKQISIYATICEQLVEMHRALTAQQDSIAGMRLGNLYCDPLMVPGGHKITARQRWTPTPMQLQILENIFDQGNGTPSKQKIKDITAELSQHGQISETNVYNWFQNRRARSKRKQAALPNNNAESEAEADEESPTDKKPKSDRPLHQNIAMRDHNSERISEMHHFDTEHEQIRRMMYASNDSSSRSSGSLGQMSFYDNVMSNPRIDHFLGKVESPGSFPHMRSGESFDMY
Experiment: protein-binding microarray (RPBM); PBS, 2% BSA, 51.3 ng/ul salmon testes DNA, 50 uM zinc acetate, 200 nM TF, 25 C, 1 h; high values mean tight binding
Conditions: protein: recombinant; tags: N-terminal polyhistidine and DsRed monomer fusion (pET32a); label: CyDye5-dUTP incorporated in the synthesized complementary strand; 3' TTTTT single-stranded linker to array surface; dsDNA, one strand shown
Summary of the method: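 The binding signal for each feature is its fluorescence intensity in arbitrary units. An Axon 4000B scanner was used to read a custom Agilent array that had been made double-stranded with Cy5-dUTP primer extension, blocked with 2% BSA, incubated at 25 °C for 1 h with 200 nM protein in PBS, 2% BSA, salmon testes DNA and 50 µM zinc acetate, and washed. The protein was an N-terminal polyhistidine–DsRed transcription factor fusion from E. coli BL21-CodonPlus, purified on Ni–NTA.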

Sequence | binding signal
CCCAATTAAATAATGCCAATTGGGTTTGATCTAATGCTGGCGGAGTCACCTAGTGCAG | 15200 fluorescence intensity (a.u.)
TCTTAATTTTGTTGTAATTTGTAAGCAAGATTTTAACTTTCGGAGTCACCTAGTGCAG | 14000 fluorescence intensity (a.u.)
CACATGTTATTAATTTATTATTCAAATAAACTATGCTGTCCGGAGTCACCTAGTGCAG | 8780 fluorescence intensity (a.u.)
GACGACTTAATTAGACTCAAAATATTCGTCTCGCGGTTTCCGGAGTCACCTAGTGCAG | 16000 fluorescence intensity (a.u.)
GAATAAATCATTTGTAAAGCCAATTGTTCATCACAAATATCGGAGTCACCTAGTGCAG | 5700 fluorescence intensity (a.u.)
GATGACGGAACGAAATTACAGTTTGGATGTTTTCTTGTTCCGGAGTCACCTAGTGCAG | 7720 fluorescence intensity (a.u.)
GGTAGGAGGGTTATTGATTAATGATATAGCAAAGAATCATCGGAGTCACCTAGTGCAG | 5090 fluorescence intensity (a.u.)
ATAACATGATGAGTTCCAGCACTAGACTTGCTGATCTGTTCGGAGTCACCTAGTGCAG | 4250 fluorescence intensity (a.u.)
TTCAAATTTCAATTTGATTTATCATATATGAAACAATATTCGGAGTCACCTAGTGCAG | 4000 fluorescence intensity (a.u.)
ATGGGTGGCAAGATTGACGAACTGGACATTGCAAAACTGACGGAGTCACCTAGTGCAG | 5700 fluorescence intensity (a.u.)
GATAATTTGTTTGTATGTGTGTAGCTATACTAATTAGACCCGGAGTCACCTAGTGCAG | 35000 fluorescence intensity (a.u.)
AAAATTTGACAGATATAATTATAGTACAATTTTACTGTAACGGAGTCACCTAGTGCAG | 30300 fluorescence intensity (a.u.)
AATGATTTTCGTATACAAATATGGTTTCACAAACCGTGTACGGAGTCACCTAGTGCAG | 13700 fluorescence intensity (a.u.)
GGAGATAATATAATCCAATCAGAAAGTTCATTATTTCAGGCGGAGTCACCTAGTGCAG | 9680 fluorescence intensity (a.u.)
CTTAATAACTTTCTCGGATTTAATGTGTGACTCACCATTCCGGAGTCACCTAGTGCAG | 3340 fluorescence intensity (a.u.)
TCCCATTAATTATTCCAACTTTGAAACGTAGGCACATCGACGGAGTCACCTAGTGCAG | 14100 fluorescence intensity (a.u.)
TTAAGTGATCAAATTAAGTTATCTCCTGATGACTTTGCAACGGAGTCACCTAGTGCAG | 12500 fluorescence intensity (a.u.)
GTATACTAATCAAGGTTATCATAAGTTAAGGTAGTGGATTCGGAGTCACCTAGTGCAG | 5770 fluorescence intensity (a.u.)
AAGTAATTTGAAAGGGGCTGTAAATTGTACATTAACTTTGCGGAGTCACCTAGTGCAG | 16600 fluorescence intensity (a.u.)
ACTAAACAGAAAACACAAACTATATGAAAGCAGGCCCTACCGGAGTCACCTAGTGCAG | 5910 fluorescence intensity (a.u.)
GAATTAGATAGAAGAGGGTTGTGATTGGATGAGAAATGATCGGAGTCACCTAGTGCAG | 10800 fluorescence intensity (a.u.)

Sequence | binding signal
GTTCTTCTTAATGAAGTTAATTTACATGTGTATTTTGACCCGGAGTCACCTAGTGCAG | 7650 fluorescence intensity (a.u.)
TAAAATTGCATGTGATCATTTTGTAAGCTAAACTTTTATTCGGAGTCACCTAGTGCAG | 11600 fluorescence intensity (a.u.)
CATCAGTAATTGAGCGCCGCGGCGGCGGAGGCGGGCGAGGCGGAGTCACCTAGTGCAG | 10500 fluorescence intensity (a.u.)
TTAATGATTAGTATGTAGTATATAGTTAACTATTCTAGAGCGGAGTCACCTAGTGCAG | 29300 fluorescence intensity (a.u.)
TTTCAAGAGATTAATTAATTTTCTCAACTTTGCAAGGGCACGGAGTCACCTAGTGCAG | 16000 fluorescence intensity (a.u.)
CTGAAATTTCCAATCATCTTGCGTGTGCAAGACAGCAAAGCGGAGTCACCTAGTGCAG | 41100 fluorescence intensity (a.u.)
GCCTACCAATCTAATCCAGTACTACAAACAAAGTCAAACACGGAGTCACCTAGTGCAG | 3780 fluorescence intensity (a.u.)
TAGACTTATTTAGACTGGGAGATGAATCAGTGTGGCCCACCGGAGTCACCTAGTGCAG | 3430 fluorescence intensity (a.u.)
GATAAATTGTTACTCCACCACTCTACAGATTATATTTAAACGGAGTCACCTAGTGCAG | 6740 fluorescence intensity (a.u.)
AGCAAACTAACTGTTAAACTTCCTGTATAAATATGCATGGCGGAGTCACCTAGTGCAG | 4330 fluorescence intensity (a.u.)
TAATTCCAAATTAATTTAAATGCGCTATTTGCTTAACCAGCGGAGTCACCTAGTGCAG | 18000 fluorescence intensity (a.u.)
CGTGATGGGACATTACCTAGTACTACGATAATGTCTCATCCGGAGTCACCTAGTGCAG | 4830 fluorescence intensity (a.u.)
AGAAAATAAAATTGATCAAACAAATCCTCAGGTTAAGGATCGGAGTCACCTAGTGCAG | 5480 fluorescence intensity (a.u.)
TGATTTGATTTGTTGTCTGCTCGTCTGCTGCGAAGATCAACGGAGTCACCTAGTGCAG | 26400 fluorescence intensity (a.u.)
TTATAAAATATAATTTATCTGTTATATGTTACATGGAATACGGAGTCACCTAGTGCAG | 7650 fluorescence intensity (a.u.)
AAAAGGATCCTCAAAGTTTATGGTATTTGTTGTATGACATCGGAGTCACCTAGTGCAG | 7860 fluorescence intensity (a.u.)
AAGTAGAGTGACAATTATATCTGATATGGGATGTTTTATGCGGAGTCACCTAGTGCAG | 7650 fluorescence intensity (a.u.)
CCTAACATAATTTAAAGTGTTAATTGGATACATGTCACTGCGGAGTCACCTAGTGCAG | 50900 fluorescence intensity (a.u.)
CATAAGCAGTAATTACGGAGTACCGTACAAGTTTAGAGTCCGGAGTCACCTAGTGCAG | 3190 fluorescence intensity (a.u.)
TCGATAATTCCGAGGGATTAGTCGATGATTCAGAGGAGCTCGGAGTCACCTAGTGCAG | 3920 fluorescence intensity (a.u.)
GTAACACAGATTAATCATCCACAGATTAAACAAAGGAGAACGGAGTCACCTAGTGCAG | 6610 fluorescence intensity (a.u.)

Sequence | binding signal
CTTCATCATTCTGTTATGATCATCTAAATTTTGTACTCCACGGAGTCACCTAGTGCAG | 3260 fluorescence intensity (a.u.)
ATATATATATATATATATATATTCATTAACATCAATATGTCGGAGTCACCTAGTGCAG | 26300 fluorescence intensity (a.u.)
ACGAAACTGGTCCTAAACTGGAGCAGCAGTCACGGATAAACGGAGTCACCTAGTGCAG | 5320 fluorescence intensity (a.u.)
AGTATGATTATAGAAATGGACGTTTCAGATTTGTTTACGTCGGAGTCACCTAGTGCAG | 31100 fluorescence intensity (a.u.)
TGGTCATGTTTATTTGATTATTACTTTCTCAGGTTTGGACCGGAGTCACCTAGTGCAG | 5200 fluorescence intensity (a.u.)
TTTCTGATGATTGCATGCACGTCTTGCTGGCTCATCCATGCGGAGTCACCTAGTGCAG | 27000 fluorescence intensity (a.u.)
GTTTATAATTAGATCGCATAAAACACTACTCACTATGTCCCGGAGTCACCTAGTGCAG | 7950 fluorescence intensity (a.u.)
ACCAAATTAAACCTCATCAGATCGGACGGTGGCAGGGCTCCGGAGTCACCTAGTGCAG | 12100 fluorescence intensity (a.u.)
TTAGTTAAATTACACCACTCAATTATGTTTAGCATTTAACCGGAGTCACCTAGTGCAG | 12200 fluorescence intensity (a.u.)
TAAAATTTGACTTTAAAATTTAAATCGAAAATTTTCAAATCGGAGTCACCTAGTGCAG | 5460 fluorescence intensity (a.u.)
TTTAGGATTAATTGGATCTATGCCATTATAAATTTTATGTCGGAGTCACCTAGTGCAG | 24600 fluorescence intensity (a.u.)
ACATAGATTAATATGAAATATATCACTCCACAAACATGCACGGAGTCACCTAGTGCAG | 11200 fluorescence intensity (a.u.)
TCGTAGTAATCATGCGTGATCTGATGAATATTTTATGGATCGGAGTCACCTAGTGCAG | 4060 fluorescence intensity (a.u.)
TTTAAATTATTTCAAAATAATGAATCACAATCTATATTTTCGGAGTCACCTAGTGCAG | 5830 fluorescence intensity (a.u.)
TAAGCCTAATTAATCCATGTTTATTGTAGCATCACATAGGCGGAGTCACCTAGTGCAG | 10300 fluorescence intensity (a.u.)
CAATATATTGATAGAACACAGCTGTAACTAAATGTTGCGTCGGAGTCACCTAGTGCAG | 25500 fluorescence intensity (a.u.)
ATGATTTACTTAACTCATATTAGTAATCTAAATGTGTATTCGGAGTCACCTAGTGCAG | 31800 fluorescence intensity (a.u.)
ATTCAGATTGGTGACACTAACTACTTTTGAAGTGGTTGCCCGGAGTCACCTAGTGCAG | 22300 fluorescence intensity (a.u.)
TGGGCCTGATTAACATGTGCTGTAGAATCGTACAACTGTGCGGAGTCACCTAGTGCAG | 7530 fluorescence intensity (a.u.)
GTGTAATTCTAAATAAAGTAATTACATAAAAGCAGAGTTCCGGAGTCACCTAGTGCAG | 5340 fluorescence intensity (a.u.)
ATTGTAACAAACTCTTTCATAATTATGACTCTCTTGTGTGCGGAGTCACCTAGTGCAG | 4850 fluorescence intensity (a.u.)

Sequence | binding signal
CTAACAGATTAGGATTCTGATACCACCTTAATCAGACGAACGGAGTCACCTAGTGCAG | 25300 fluorescence intensity (a.u.)
GGAGGCAATCACACGACGTGTCTAGGAGTAGTATATTCCTCGGAGTCACCTAGTGCAG | 3760 fluorescence intensity (a.u.)
TATGTAATTAGTTTTATAAGTAGTCTATATTTAATACTCTCGGAGTCACCTAGTGCAG | 17400 fluorescence intensity (a.u.)
GATTAATTGAAAGTTTACATGGACGACGTTGACTCGGGGCCGGAGTCACCTAGTGCAG | 54700 fluorescence intensity (a.u.)
ATATAAAACTCTGCTAATTAACCTGGGTTAATTACAAGGTCGGAGTCACCTAGTGCAG | 13100 fluorescence intensity (a.u.)
AAATCATGACGTAATTAGGCTCAAAGGATTTGTCTCACAACGGAGTCACCTAGTGCAG | 6550 fluorescence intensity (a.u.)
ATATAAATTACAAATTTTGTCAGTAAAATTTGGAGGGTCACGGAGTCACCTAGTGCAG | 28100 fluorescence intensity (a.u.)
GTTGATTACTTACTCCTACTGTTTGGGTTCACATCACAAGCGGAGTCACCTAGTGCAG | 30300 fluorescence intensity (a.u.)
TGGTTGATTGCTCATAGTTCAAACGAATTCATGAAGTAACCGGAGTCACCTAGTGCAG | 23800 fluorescence intensity (a.u.)
ATGTTATGATGAGAAGATAGATAGAGAAATAGTATTTCAACGGAGTCACCTAGTGCAG | 4610 fluorescence intensity (a.u.)
CAATCAATCACCAAACGTGGGTCGTCTCAGAGATCGATCACGGAGTCACCTAGTGCAG | 16000 fluorescence intensity (a.u.)
TTCATCATTCAATTATACAATTTGATGGTCTTTCTTTGTTCGGAGTCACCTAGTGCAG | 15700 fluorescence intensity (a.u.)
GCATGTTGATTATACCAGTAAGTTTCACGCACGCACACCGCGGAGTCACCTAGTGCAG | 13000 fluorescence intensity (a.u.)
AATAAGCACATCAATCAGTTATCCTTTTGGGACTTCTTAACGGAGTCACCTAGTGCAG | 5810 fluorescence intensity (a.u.)
GACGAGAGATTCAAATGTAAAAGTTAACCTAATGAAAACTCGGAGTCACCTAGTGCAG | 10900 fluorescence intensity (a.u.)
AGCAAGCTTAATTAGCAGCCACACATTAGAGTCACAAAGTCGGAGTCACCTAGTGCAG | 5890 fluorescence intensity (a.u.)
GAGATTAAATCTAATCATCGAAATCACCATCATCTCGACACGGAGTCACCTAGTGCAG | 30100 fluorescence intensity (a.u.)
CAGCTGGAATATTATTGTGATTGACAAAAGCATGTTCCTTCGGAGTCACCTAGTGCAG | 34800 fluorescence intensity (a.u.)
TGTATGACTTGATTTCTTTTATCTAGCATGATTTATTTGTCGGAGTCACCTAGTGCAG | 6180 fluorescence intensity (a.u.)
AAAACCATCATCAATCAGTGCATGAACAACATCAATGATCCGGAGTCACCTAGTGCAG | 17100 fluorescence intensity (a.u.)
GGCCTAAACTGCCACGATTGAAGGCCCATACTCCCCTACACGGAGTCACCTAGTGCAG | 5420 fluorescence intensity (a.u.)
